Experimental data reported in PubChem BioAssay AID1347073 (National Center for Advancing Translational Sciences (NCATS), 2019).
The campaign covered roughly 45,000 compounds. About 200 (0.44%) were called active. Inconclusive results (about 7%) are left out. Calls follow the shape of the dose curve; as a rule, active = well fitted activation curve with a large enough effect; inconclusive = small, poorly fitted or top-dose-only effect; inactive = no such curve, though single readings can be large or run the other way. This is one part of the list.

assay: qHTS of TDP-43 Inhibitors: NCGC Sytravon Library Screen; conditions: yeast TDP-43 toxicity rescue, BacTiter-Glo growth, 24 h; series mostly up to 46.1 µM; growth rescue (activation): at the top concentration; also: 0% is about no effect; nearly all actives have a fitted effect of over 55% in size
In short: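 TDP-43-expressing yeast, pregrown in raffinose, seeded at OD600 0.02 in galactose medium with compound for 24 hr at 30 deg C. Growth read by BacTiter-Glo luminescence, so rescue of toxicity appears as activation.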

SMILES	growth rescue (activation)
CCOc1ccccc1OCCCC(=O)OCC(=O)Nc1cccc(Cl)c1	inactive: -2.1%
O=C(NCCCN1CCOCC1)C(=O)N/N=C/c1ccccc1O	inactive: -10.2%
COc1ccc(C2c3ccc(O)cc3Oc3ncn4nc(-c5ccco5)nc4c32)cc1OC (centres undefined)	inactive: 19.1%
O=C(NC(c1ccc(Cl)cc1)c1ccsc1)C1CCN(Cc2cccc(C(F)(F)F)c2)CC1 (centres undefined)	inactive: 1.45%
CCCc1cc(C(=O)OC)c(NC(=O)CCCC(=O)O)s1	inactive: 21.4%
CNC(=S)N1CCc2ccccc2C1	inactive: 0.546%
O=C(NCCC(=O)N(Cc1ccco1)Cc1cccs1)c1ccc([N+](=O)[O-])cc1	inactive: -0.069%
O=[N+]([O-])c1ccc(N=Nc2ccc(O)cc2O)cc1	inactive: 9.11%
COc1ccc(CNCCNC(=O)c2cccs2)cc1OC	inactive: 9.91%
O=C(COC(=O)c1cnccn1)c1ccccc1	inactive: 40.5%
O=C(COC(=O)CCSc1ccccc1)Nc1ccc(F)cc1Cl	inactive: -10.2%
Cn1c(SCC(=O)Nc2sccc2C(N)=O)nc2ccccc2c1=O	inactive: 10.1%
O=C(NCCC(F)(F)F)C1Cc2c(-c3cccc(F)c3)ccnc2O1 (centres undefined)	inactive: 2.59%
CCc1nc2sc(C(=O)O)c(N)c2c2c1CCCC2	inactive: -4.63%
COCCNC(=O)C1(C)CCN(C(=O)c2cccc(C)c2C)C1 (centres undefined)	inactive: -3.07%
O=C(O)c1ccc(N/N=C/c2ccc3ncccc3c2)cc1	inactive: 15.2%
CC(=O)Nc1nc(C)c(Cc2ccccc2)c(=O)[nH]1	inactive: 0.385%
O=[N+]([O-])c1ccc(O)c(Nc2ncnc3ccc(Br)cc23)c1	inactive: -9.28%
Nc1ccccc1OCCOCCOc1ccccc1N	inactive: -17%
Cc1cc2ccccc2n2c(SCC(=O)N3CCOCC3)nnc12	inactive: -5.37%
CCOc1nc(C#N)nc(N2CCCCC2)n1	inactive: 22%
Cc1ccc(S(=O)(=O)/N=C2\C=C(Nc3ccc(O)cc3)C(=O)c3ccccc32)cc1	inactive: 4.46%

SMILES	growth rescue (activation)
N#Cc1cc(Nc2c(N)nc[nH]c2=O)c([N+](=O)[O-])cc1C#N	inactive: -15.3%
Cc1cccc(NC(=O)CCC(=O)N/N=C/c2cc([N+](=O)[O-])ccc2O)c1	inactive: 8.74%
Cc1ccc2nc(NC(=O)c3ccc(N4C(=O)CCC4=O)cc3)sc2c1	inactive: 10.8%
CN1CCC(N(C)C(=O)/C(C#N)=C\c2ccc(OC(F)F)cc2)CC1	inactive: -14.6%
Cc1ccccc1N(C(=O)CS(=O)CC(=O)Nc1ccc(F)cc1)C(C)C(=O)NC(C)(C)C (centres undefined)	inactive: -2.91%
O=C(Nc1nc2ccccc2[nH]1)c1cccc(S(=O)(=O)N2CCOCC2)c1	inactive: -9.65%
COc1ccc(CCNCC(O)COc2cccc(C(C)=O)c2)cc1OC (centres undefined)	inactive: -2.64%
CC(C)(C)c1ccc(CC(=O)N2CCC2(C)C(=O)NS(=O)(=O)c2cccc(Cl)c2)cc1 (centres undefined)	inactive: 22.1%
O=[N+]([O-])c1cccc(NC(=S)NCc2ccncc2)c1	inactive: 10.4%
COc1ccc2[nH]cc(CCN3C(=O)c4ccc(C(=O)O)cc4C3=O)c2c1	inactive: -6.18%
CC(C)C(=O)Nc1nnc(SCC(=O)NC2CCCC2)s1	inactive: -6.37%
Cc1ccc(OCC(=O)N/N=C\c2cccn2C)c([N+](=O)[O-])c1	inactive: 1.59%
N#CCCN(C(=O)COC(=O)c1ccc2c(c1)OCCO2)c1ccccc1	inactive: 3.41%
O=C(OCc1ccccc1)C1=NNC2C(=O)N(Cc3ccccc3)C(=O)C12 (centres undefined)	inactive: 6.22%
Cc1cccc(C(=O)Nc2ccc(O)cc2C(=O)O)c1	inactive: 1.36%
CS(=O)(=O)c1ccc(S(=O)CC(=O)Oc2ccc(Cl)cc2)c([N+](=O)[O-])c1 (centres undefined)	inactive: -5.87%
Cc1ccc(S(=O)(=O)Nc2c(C)nc3nc(C)[nH]n3c2=O)cc1	inactive: -20.7%
O=C(COC(=O)CCC(=O)c1ccc(Cl)cc1)NCc1ccco1	inactive: 1.43%
COc1ccc(CCN(C)C(=O)C2CCCN(Cc3ccc(OC)c(OC)c3)C2)cc1OC (centres undefined)	inactive: -9%
N#C/C(=N\Nc1cccc(F)c1)C(=N)N1CCCCCC1	inactive: 9.43%
CC(C)(C)n1nc2c(c1NC(=O)c1cccs1)CS(=O)C2 (centres undefined)	inactive: 37.3%
O=C(CN1CCN(c2ccccc2F)CC1)NC(=O)NC1CCCCC1	inactive: 5.65%

SMILES	growth rescue (activation)
Cc1cc(C(=O)O)ccc1-c1ccc(CO)o1	inactive: 6.35%
CCCCOCCCNC(=O)c1ccc([N+](=O)[O-])c(C)c1	inactive: 22.8%
O=C(Cc1ccc(F)cc1)N/N=C/c1ccc(-c2ccc(Cl)c(C(=O)O)c2)o1	inactive: -7.09%
Cc1ccc(NS(=O)(=O)c2ccc(N/N=C/c3ccncc3)c([N+](=O)[O-])c2)c(C)c1	inactive: -16.6%
Cc1ccc2c(C)nc(SC(C(=O)c3ccccc3)c3ccccc3)nc2c1 (centres undefined)	inactive: 9.4%
CCOc1cc(C=C(C(=O)OC)C(=O)OC)ccc1OCc1ccc([N+](=O)[O-])cc1	inactive: -10.7%
COc1ccc(Nc2nc(N)nc(CN3CCN(c4ccc(F)cc4)CC3)n2)cc1	inactive: -3.36%
COC(=O)c1nc2n(n1)C(c1ccccc1OC)C1=C(CCCC1=O)N2 (centres undefined)	inactive: 0.682%
O=C1C=C(Nc2ccccc2)c2ccccc2C1=O	inactive: 2.17%
O=C(CN1C(=O)CCC1=O)Nc1nc(-c2cccs2)cs1	inactive: -11.1%
O=C(Nc1ccncc1)c1ccc(C(=O)Nc2ccncc2)cc1	inactive: 11.4%
O=C(O)CCCNC(=O)c1ccccn1	inactive: -4.43%
CC1CCN(C(=O)c2cc(-c3ccco3)on2)CC1	inactive: 12.1%
Cc1cc(NC(=O)CSc2nc(C)c(C)n2CC(C)C)no1	inactive: -10.6%
O=C(COc1ccc(F)cc1)NCCCn1ccnc1	inactive: 14.7%
CCn1c(CNC(=O)Cc2ccc(OC)cc2)n[nH]c1=S	inactive: 4.75%
CC(=O)Nc1cccc(NC(=O)COc2ccc3c(c2)OCO3)c1	inactive: -17.2%
CC(=O)Nc1cccc(NC(=S)Nc2ccc(F)cc2F)c1	inactive: 9.86%
Cn1cccc1C1C(C#N)=C(N)OC2=C1C(=O)CCC2 (centres undefined)	inactive: -0.225%
CCC1CCCCN1S(=O)(=O)c1ccc(NC(=O)c2nc(S(C)(=O)=O)ncc2Cl)cc1 (centres undefined)	inactive: 22.6%
Cc1ccc(NC(=S)NC(=O)/C=C/c2ccc(Cl)cc2)cc1	inactive: 13%
COc1ccccc1Oc1ccc(NC(=O)c2ccccc2)cc1	inactive: 10.2%

SMILES	growth rescue (activation)
CC(=O)Nc1ccc(S(=O)(=O)N2CCN(C(=O)c3ncoc3-c3ccc(F)cc3)CC2)cc1	inactive: 6.27%
Brc1ccc(-c2noc(C3CCCCC3)n2)cc1	inactive: 2.63%
CSc1ccc(CN2CCC(C)(Oc3ccc(CC#N)cc3)C2)cc1 (centres undefined)	inactive: 7.75%
CCOc1ccccc1/C=C/c1cc(C(=O)O)c2ccccc2n1	inactive: -0.444%
Cc1ccc(NC(=O)Cc2sc(C)nc2-c2ccc(C)cc2)cc1	inactive: -12.4%
O=C(CCN1C(=O)c2ccccc2C1=O)Nc1ccc(-c2nc3ccccc3s2)cc1	inactive: 3.07%
O=C(CN(Cc1ccc(F)cc1)C(=O)CCC(=O)Nc1ccccn1)NCc1ccc(F)cc1	inactive: 0.429%
COc1ccc(NC(=O)C2=C(C)NC(=S)NC2c2ccc(O)c(OC)c2)cc1 (centres undefined)	inactive: -0.0271%
Cc1cc(C)cc(OCCNC(=O)C(C)N2C(=O)c3ccccc3C2=O)c1 (centres undefined)	inactive: 3.38%
O=C(NN=C1CCCC1)c1ccn[nH]1	inactive: -5.76%
CC(C)(CSc1ncccn1)NS(=O)(=O)c1ccccc1	inactive: -3%
Cc1ccc(-c2cc(C(=O)Nc3ccc(S(=O)(=O)N4CC(C)OC(C)C4)cc3)[nH]n2)c(O)c1 (centres undefined)	inactive: 10.7%
COc1ccc(C2(C)NC(=O)N(CC(=O)Nc3ccc(-c4nc5ccc(C)cc5s4)cc3)C2=O)cc1 (centres undefined)	inactive: -16%
Cc1ccccc1OCC(=O)Nc1ccc(N2CCN(C)CC2)c(Cl)c1	inactive: 7.2%
CC1(NC(=S)Nc2ccc3ccccc3c2)CCS(=O)(=O)C1 (centres undefined)	inactive: 14.9%
CC12C(=O)N(c3ccc(OC(=O)c4ccco4)cc3)C(=O)C1C1c3ccccc3C2c2ccccc21 (centres undefined)	inactive: 6.74%
COc1ccc(NC(=O)c2ccc3nc[nH]c3c2)c(OC)c1	inactive: 3.98%
COCCn1c(-c2ccc(OC)cc2)cnc1SCC(=O)Nc1ccc(OC)cc1OC	inactive: -2.89%
O=C(CCc1ccccc1)Nc1cc(S(=O)(=O)N2CCOCC2)ccc1N1CCCC1	inactive: -10.2%
COc1ccc(OC)c(NC(=O)C2Cc3ccccc3CN2S(=O)(=O)c2ccc(F)cc2)c1 (centres undefined)	inactive: 26.8%
COc1ccc(N2CCN(c3ccc(C(N)=O)cc3[N+](=O)[O-])CC2)cc1	inactive: 11.5%
Cc1ccc(N(Cc2cc3cc(C)ccc3[nH]c2=O)S(=O)(=O)c2ccccc2)cc1	inactive: -29.2%

SMILES	growth rescue (activation)
CC(NC(=O)c1ccccc1)C(=O)N/N=C/c1ccco1 (centres undefined)	inactive: -7.42%
CCOC(=O)C1CCCN(C(=O)c2cc(-c3ccc(F)cc3)nc3ccccc23)C1 (centres undefined)	inactive: -9.73%
CC(=O)N(c1ccccc1)c1nc(/C=C/C(=O)O)cs1	inactive: 1.08%
COc1ccc(/C=C/C(=O)NCCC(=O)N2CCCN(C)CC2)cc1	inactive: 11.5%
Oc1ccccc1CNc1ccc2c(c1)OCCO2	inactive: 1.38%
CC(=O)N1CCN(C2c3cccc4cccc(c34)C2NS(=O)(=O)c2ccccc2)CC1 (centres undefined)	inactive: 7.35%
Cc1ccc(-c2[nH]ncc2CN2CCN(C(=O)c3cccs3)CC2)cc1C	inactive: -1.04%
Cc1ccccc1-c1nnc(SCC(=O)Nc2cccnc2Cl)o1	inactive: 2.11%
O=C(Cc1ccccc1)NCC(=O)N1CCC1	inactive: -18.3%
COc1ccc(C(=O)O)cc1S(=O)(=O)NCc1ccncc1	inactive: -3.1%
CC(C)c1onc(C(=O)Nc2cccc(O)c2)c1[N+](=O)[O-]	inactive: 6.69%
COc1ccc(N(CC(=O)Nc2c(C)n(C)n(-c3ccccc3)c2=O)S(=O)(=O)c2ccc(C)cc2)cc1OC	inactive: 1.11%
O=C(C[n+]1ccccc1)N/N=C/c1cccs1	inactive: -12.6%
O=C(O)C1=NN(c2c(F)c(F)cc(F)c2F)C(=O)CC1	inactive: 3.57%
CCOC(=O)c1[nH]cnc1C(=O)Nc1cccc(OC)c1	inactive: 7.24%
CN(CCCN1CCCCC1)C(=O)c1cc(COc2ccc(F)cc2F)on1	inactive: -6.74%
COc1cc(/C=N/NC(=O)CC23CC4CC(CC(C4)C2)C3)cc(Br)c1OCC(=O)N(C)C	inactive: 1.43%
CCOC(=O)N/N=C\c1sccc1C	inactive: 6.78%
CSCC(=O)N1CCCC(CNC(=O)c2ccc(-c3ccccc3)cc2)C1 (centres undefined)	inactive: 10.7%
Cc1nnc(SCC(=O)Nc2cccc(Cl)c2)n1CC1CCCO1 (centres undefined)	inactive: -6.79%
O=C(CCCC(=O)N(CC(=O)NC1CCCC1)Cc1ccccc1Cl)Nc1ccccn1	inactive: 17.1%
